Reference: paper PMC4336329 (PLoS ONE, 2015)
About 14,000 (4.5%) of roughly 310,000 compounds showed an effect of 50% or more. Effects have a minus sign here. This is one part of the list.

target: human ether-à-go-go-related gene (hERG) potassium channel (human, UniProt Q12809); experiment: primary screen, population patch clamp on CHO cells stably expressing hERG
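Note: peak tail current of the secondary pulse compared with the same well before compound.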

Sequence of human ether-à-go-go-related gene (hERG) potassium channel (Q12809 whole entry, looked up): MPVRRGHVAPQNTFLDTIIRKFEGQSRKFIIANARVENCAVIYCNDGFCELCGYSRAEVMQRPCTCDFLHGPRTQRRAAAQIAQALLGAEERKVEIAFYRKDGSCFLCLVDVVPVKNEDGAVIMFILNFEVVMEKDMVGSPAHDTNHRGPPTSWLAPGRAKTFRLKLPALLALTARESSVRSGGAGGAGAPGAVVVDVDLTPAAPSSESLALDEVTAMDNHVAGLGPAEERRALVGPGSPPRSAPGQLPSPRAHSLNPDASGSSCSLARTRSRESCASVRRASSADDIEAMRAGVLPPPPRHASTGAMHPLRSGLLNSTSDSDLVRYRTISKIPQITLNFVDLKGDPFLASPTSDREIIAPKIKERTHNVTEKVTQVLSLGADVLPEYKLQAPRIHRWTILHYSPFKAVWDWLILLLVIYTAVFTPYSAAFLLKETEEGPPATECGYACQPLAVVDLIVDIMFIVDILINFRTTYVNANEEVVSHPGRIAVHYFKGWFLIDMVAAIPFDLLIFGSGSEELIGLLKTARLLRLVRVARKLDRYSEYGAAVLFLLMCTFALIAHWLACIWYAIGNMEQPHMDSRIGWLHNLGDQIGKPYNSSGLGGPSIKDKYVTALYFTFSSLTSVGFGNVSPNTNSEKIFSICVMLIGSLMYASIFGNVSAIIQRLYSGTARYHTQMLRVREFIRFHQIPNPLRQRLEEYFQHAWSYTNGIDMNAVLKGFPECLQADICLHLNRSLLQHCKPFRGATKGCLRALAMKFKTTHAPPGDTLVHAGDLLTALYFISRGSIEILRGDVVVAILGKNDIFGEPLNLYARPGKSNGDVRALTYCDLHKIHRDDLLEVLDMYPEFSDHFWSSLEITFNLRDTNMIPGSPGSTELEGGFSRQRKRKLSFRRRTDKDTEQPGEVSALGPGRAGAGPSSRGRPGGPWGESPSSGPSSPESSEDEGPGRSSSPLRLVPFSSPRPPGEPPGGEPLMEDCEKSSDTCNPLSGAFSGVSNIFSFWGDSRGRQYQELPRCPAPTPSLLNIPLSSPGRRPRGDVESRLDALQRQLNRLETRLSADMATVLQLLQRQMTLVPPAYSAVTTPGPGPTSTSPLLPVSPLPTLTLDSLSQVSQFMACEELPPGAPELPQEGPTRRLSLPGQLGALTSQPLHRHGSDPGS

SMILES	hERG current change (%, negative = inhibition) at 10uM [%]
CSc1ccccc1NC(=O)C1CCN(S(C)(=O)=O)CC1	12.9
CCOC(=O)C1CN(S(=O)(=O)c2cccc(C(F)(F)F)c2)c2cc(CC(=O)OC)ccc2O1 (centres unmarked)	-8.37
O=S(=O)(CC(O)COc1ccccc1Cl)c1ccccc1 (centres unmarked)	2.95
N#CC1(NC(=O)COC(=O)c2cccc(-n3cnnn3)c2)CCCCC1	-0.0138
CC(NC(=O)/C(=C/c1ccc2c(c1)OCO2)NC(=O)c1cccc([N+](=O)[O-])c1)C(=O)O (centres unmarked)	-0.336
CCC(C(=O)Nc1cnccn1)c1ccccc1 (centres unmarked)	-7.15
CCC1CCc2[nH]nc(C(=O)O)c2C1 (centres unmarked)	-3.54
CC1CCCCN1Cc1c(O)ccc2c(=O)c(-c3ccc(Cl)cc3)coc12 (centres unmarked)	-69.1
Cl.O=C(CN1C2=NCCN2c2ccccc21)c1ccco1	-20.7
CC(=O)N1CC[n+]2c(-c3ccc(Cl)cc3)csc21.[Br-]	-1.19
CC(=O)N1CCc2cc(S(=O)(=O)N3c4ccccc4CC3C)ccc21 (centres unmarked)	-12.7
C#CCNC(=O)c1ccc(OCc2ccccc2)cc1Cl	2.16
Cn1ncc2c(=O)n(CC(=O)NC34CC5CC(CC(C5)C3)C4)cnc21	11.2
CCC(C)NC(=O)c1cn(C)c(=O)c2cc(OC)c(OC)cc12 (centres unmarked)	-2.86
COc1ccc(C(=O)Nc2nc3c(s2)CCCC3)cc1S(=O)(=O)N1CCCc2ccccc21	-2.36
CC(=O)O.Oc1[nH]c2ccccc2c1N=Nc1ncnc2c1oc1ccccc12	1.1
CC1(C)OC(=O)C(=CNc2cccc(C(=O)O)c2)C(=O)O1	18.7
CC1CCCC(C)N1/N=C/c1ccccc1Br (centres unmarked)	8.5
O=C(CC1C(=O)NCCN1Cc1cccc(F)c1)NC1CCCCC1 (centres unmarked)	-1.05
CCC(=O)NC1OC(CO)C(O)C(O)C1O (centres unmarked)	30.3
COc1ccc(CN(C)C(=O)C23CC4CC(CC(Cl)(C4)C2)C3)c(OC)c1OC	-9.63
O=C(CS(=O)(=O)c1ccccc1)c1cc2ccccc2oc1=O	-0.812
COc1cc(C2CC(=O)c3cnc(NC(C)=O)nc3C2)cc(OC)c1OC (centres unmarked)	-0.439

SMILES	hERG current change (%, negative = inhibition) at 10uM [%]
O=C(NCc1cccc(C(F)(F)F)c1)C1CC(c2ccccc2[N+](=O)[O-])=NO1 (centres unmarked)	-28.9
Cc1cccc(Cn2cnc3ccccc32)c1	-11.3
Cc1cc(Br)c2nc3c(c(C(=O)O)c2c1)CCCCC3	4.41
O=C(NCc1cccs1)C1CCN(S(=O)(=O)c2cccs2)CC1	-32.1
NC(=O)CSc1nnc2n(N)c(=O)c3ccccc3n12	8.34
COc1ccc(/C=N/NC(=O)C2C(C=C(Cl)Cl)C2(C)C)c(OC)c1 (centres unmarked)	-10.2
c1ccc(Nc2ccccn2)cc1	16.1
C#CCOCCOCCOCCNc1nc(N2CCN(C(=O)[C@H]([C@@H](C)CC)n3cc(CCC[NH+]=C(N)N)nn3)CC2)nc(N2CCN(C(=O)[C@H](C)n3cc(CCC[NH+]=C(N)N)nn3)CC2)n1.[Cl-]	9.58
Cn1ccnc1/C(=N\NC(=O)c1ccccc1)c1cccc([N+](=O)[O-])c1	-68.6
COc1ccc(CN(CCNC(=O)CCCCC(=O)NCCN(Cc2ccc(OC)cc2)C(C)C)C(C)C)cc1.Cl	-5.63
C=CCOCC(O)Cn1c(N2CCCC2)nc2c1c(=O)n(C)c(=O)n2C (centres unmarked)	18.1
O=c1c2ccccc2[nH]c(=S)n1-c1ccc2c(c1)OCO2	13.1
CCC1CCCCN1CCNC(=O)CNS(=O)(=O)c1ccc2nc(C)sc2c1 (centres unmarked)	10.5
O=C1OC(c2ccc3c(c2)OCO3)N(C(=O)c2ccc(Cl)c(Cl)c2)c2ccccc21 (centres unmarked)	15.1
CCOC(=O)N1CCc2c(sc3c2c(=O)n(Cc2ccccc2)c(=O)n3CC(=O)NCC2CCCO2)C1 (centres unmarked)	-21.8
O=C(NC(=S)NCc1cccnc1)c1cc2ccccc2o1	8.71
Cc1nc2c3cc(Cl)ccc3n(CCN3CCOCC3)c2s1	-52.2
Cc1ccc(OCCCC(=O)Nc2ccc(S(N)(=O)=O)cc2)cc1	-48.6
Cc1ccc(N2NC(=O)/C(=C/c3ccc(-c4ccc(Cl)c(C(=O)O)c4)o3)C2=O)cc1C	17.6
O=C(Nc1nnc(-c2ccccc2)o1)c1cc(Cl)sc1Cl	12.1
COC(=O)c1ccccc1NC(=O)N1CCN(S(=O)(=O)c2ccc(Cl)cc2)CC1	7.58
COc1ccc(-c2cc(C(=O)Nc3c(C)nn(Cc4ccccc4)c3C)no2)cc1	4.15
Clc1ccc(NNc2ccnc3cc(Cl)ccc23)cc1	-3.75

SMILES	hERG current change (%, negative = inhibition) at 10uM [%]
O=C(Nc1scc(-c2ccc(Br)cc2)c1C(=O)O)c1ccccc1F	31.2
Brc1ccc(COc2ncnc3ccccc23)cc1	-4.31
CC(=NCCc1c(C)[nH]c2ccc(C)cc12)C1=C(O)CC(c2ccccc2)CC1=O (centres unmarked)	-4.58
CN1CCN(Cc2c(O)ccc3c2oc(=O)c2ccccc23)CC1	7.11
Cc1c(CNCCc2ccccc2Cl)c(C(=O)O)c(C)n1-c1ccccc1	3.78
Cc1ccc(S(=O)(=O)Nc2ccc3c(c2)nc(CN2CCCC2)n3C)cc1	-46.5
CCOC(=O)c1c(NC(=O)Cn2nc(C(F)(F)F)cc2C)sc2c1CCC2	-4.65
Cc1ccc(N=Cc2sc(O)c3ccccc23)c(C)c1	23.5
Nc1n[nH]c2c1C1(CCCC1)Cc1ccccc1-2	9.98
COc1ccccc1-c1cc(C(=O)NCc2ccccc2)no1	-12
CCOC(=O)c1sc(NC(=O)C2CC(=O)N(c3ccc(C)cc3)C2)nc1C (centres unmarked)	-18.5
CC1CCCCN1Cc1ccc(N(C)C)cc1 (centres unmarked)	8.46
COc1ccc(NC(=O)CSc2nnnn2-c2ccccc2F)cc1	7.62
CC(CP(=O)(O)O)NC(=O)Cc1ccccc1 (centres unmarked)	9.67
Clc1ccc(CNc2cnccn2)cc1	29.4
COC(=O)c1ccc(CO/N=C(\NC(C)=O)c2nonc2NC(C)=O)cc1	11.9
CCN(CC)CCCNC(=O)c1cc2c(=O)n(C)c3ccccc3c2n1C	-1.21
O=C(CNC(=O)c1cccs1)c1ccc(Cl)cc1	13.1
O=C(Nc1ccc(Cl)cc1)Nc1ccc(Br)cn1	9.52
Cc1cc(C)cc(OCC(=O)OCC(=O)NCCC2=CCCCC2)c1	8.61
CCc1cc(CC)c(/C=N/NC(N)=O)c(CC)c1	7.35
O=c1c2ccccc2nc(-c2ccccc2)n1CCCN1CCOCC1	-20.4
Cc1ccc(CN2C(=O)CSC(C)C2=O)cc1 (centres unmarked)	5.73

SMILES	hERG current change (%, negative = inhibition) at 10uM [%]
CCCCN(C(=O)Cc1ccc2c(c1)OCCO2)c1c(N)n(CCC)c(=O)[nH]c1=O	12.8
CN(CC(=O)Nc1ccc(Cl)cc1F)C1CCS(=O)(=O)C1 (centres unmarked)	-20.6
CC/C(=C/c1sc2ccc(C)cc2[n+]1CCO)SC.COS(=O)(=O)[O-]	18.8
CCCOc1cccc(-c2cc(C(=O)N/N=C/c3cccnc3)c3ccccc3n2)c1	-6.32
O=C(c1ccccn1)N1CCN(S(=O)(=O)c2ccc3ccccc3c2)CC1	-25.4
Cc1c(O)nc(SCC(=O)Nc2ccc3c4c(cccc24)CC3)n(-c2ccccc2)c1=O	3.98
CC(C)CCNc1nc(N)c([N+](=O)[O-])c(NCCO)n1	4.26
Cc1cc2oc3ccc(NCCC4CCCN4C)cc3c(=O)c2cc1C (centres unmarked)	-38.7
CC(=O)c1cn(C(=O)c2ccc(Cl)cc2)c2ccccc12	20.5
Cc1ccc(C)c(NC(=O)CCc2ccc(C)o2)c1	7.43
COC(=O)CCN(C(=O)c1ccc(N2CCCC2)c([N+](=O)[O-])c1)c1ccccn1	11
C=C(C)CSc1nc2sc3c(c2c(=O)n1-c1ccc(OC)cc1)CCN(C)C3	11.9
Cc1onc(-c2ccccc2Cl)c1C(=O)OCC(=O)c1ccc[nH]1	-18.7
O=C(CSc1n[nH]c(-c2ccccn2)n1)Nc1ccccc1F	-1.74
COc1ccc(CCC(=O)NNC(=O)c2cc(Cl)ccc2OC)cc1	-3.63
O=C1C2C(c3ccccc3)CC=CC2[C@H](c2ccoc2)N1Cc1ccccc1 (some centres unmarked)	-42.9
COc1ccc(/C=C/C(=O)NC2CCCCC2C)cc1 (centres unmarked)	7.99
O=C(CSc1nc(O)cc(=O)[nH]1)N1c2ccccc2CCc2ccccc21	-3.03
CCCCCNC(=O)c1cn(CC)c2cc(N3CCN(C)CC3)c(F)cc2c1=O	-15.8
Cn1c(-c2ccc3c(c2)OCO3)cnc1NC(=O)CCC(=O)NCCc1ccccc1	-6.98
